These results are taken from ChEMBL document CHEMBL4888484, “Replenishing the malaria drug discovery pipeline: Screening and hit evaluation of the MMV Hit Generation Library 1 (HGL1) against asexual blood stage Plasmodium falciparum ,using a nano luciferase reporter read-out” (2022).

Molecules are shown by their SMILES. Screen size: about 150,000 compounds; about 540 (0.36%) showed an effect of 50% or more. This is one part of the list.

The test system of this experiment is Plasmodium falciparum. The experiment is described as follows: Primary screen in NF54 nanoGlo assay, in single point, at 2uM, 72h; a lower Z score goes with more inhibition. The experiment is classed as functional, Erythrocyte. To be noted: timepoint 72 hour.
For the molecule `CC(C)N(CCN(C)C)C(=O)c1cnc(-c2cnn(C)c2)s1`, the “% Inhibition” value is given as -3% and the Z score stood at 0.34.
Consider `COc1cc(Cl)ccc1CNC(=O)N1CC(NC(=O)C2CCC2)C1`, for which the “% Inhibition” value is given as 6% and the Z score is -1.02.
The corresponding values for `COCC(NC(=O)N1CCCCC(N2CCCC2)C1)c1ccco1` (stereo not drawn) are 2% and -0.19.
The corresponding values for `O=C(O)c1ccc(C(F)(F)F)nc1C(F)(F)F` are -16% and 1.61.
For the molecule `COc1ccc(NC(=O)[C@@H]2Cc3[nH]cnc3C3(CCCC3)N2)cc1Cl`, the “% Inhibition” value is reported as -4% and the Z score is given as 0.61.
For the molecule `CC(NCC(=O)NC(C)(C#N)C1CC1)c1cc2ccccc2s1` (stereo not drawn), the “% Inhibition” value is listed as -1% and the Z score worked out at 0.11.
For `CC1CN(S(=O)(=O)CCc2ccccc2F)CC2(CCOC2C)O1` (stereo not drawn), the “% Inhibition” value worked out at 4% and the Z score was -0.46.
On to `Cc1ccc(N(C(=O)c2ccc3c(c2)OCO3)C(=O)N2CCCCC2)cc1`, for which the “% Inhibition” value is recorded as -3% and the Z score was 0.51.
In the same order, the values of `O=C1c2ccccc2C(=O)N1c1cc(-c2c[nH]c3ccccc23)n(-c2ccccc2)n1` are -6% and 0.69.
The corresponding values for `COc1cccc(NC(=O)c2ccccc2C(=O)Nc2cccc(OC)c2)c1` are -11% and 1.43.
In the same order, the values of `CN(C)c1ncc(CN2C[C@H](c3cnn(C)c3)C3(CCOCC3)C2)n1C` are -2% and 0.29.
Regarding `CN(C)c1ccc(C2=Nc3ncnn3/C2=N/Cc2ccccc2)cc1`, the “% Inhibition” value is -10% and the Z score is reported as 1.36.
The corresponding values for `CC(C)OC(=O)C[C@H]1CCCN(C(=O)Cc2ccc3c(c2)OCO3)C1` are -3% and 0.56.
Turning to `CCc1nnc(-c2ccc3ccn(CC(=O)Nc4ccc5c(c4)OCO5)c3c2)o1`, the “% Inhibition” value is reported as -3% and the Z score is recorded as 0.37.
The corresponding values for `CC1CCCC1Nc1nccc(C(F)(F)F)n1` (stereo not drawn) are -7% and 0.86.
In the same order, the values of `C[C@H](NC(=O)c1c[nH]nn1)c1ccc2c(c1)OCCO2` are -14% and 1.17.
The corresponding values for `CCOC1CC2(CCN(C(=O)CCCc3ccc4c(c3)CC(=O)N4)C2)C1` (stereo not drawn) are -12% and 2.28.
In the case of `CCNC(=O)N1CC(S(=O)(=O)C2CCCCC2)C1`, the “% Inhibition” value is -18% and the Z score stood at 2.27.
For `CCN(CC)CCNC(=O)c1cnn(-c2nccc(-c3ccc4c(c3)OCO4)n2)c1-c1ccco1`, the “% Inhibition” value is given as -15% and the Z score is 2.96.
In the same order, the values of `CCCn1cnc2c1c(=O)n(CCC(C)C)c(=O)n2-c1ccc(C(C)C)cc1` are -5% and 0.61.
As for `O=C1CN(C(=O)[C@H]2CCn3c(cnc3C(F)(F)F)C2)CCN1CC1CCCC1`, the “% Inhibition” value was -4% and the Z score stood at 0.55.
The corresponding values for `CCc1ccc(CNc2ccc(F)c(N3CCCS3(=O)=O)c2)o1` are -1% and 0.12.
In the same order, the values of `C=C(C)CNC(=O)NCc1ncoc1C` are 5% and -0.78.
In the same order, the values of `CC(C)=CCC[C@@]1(C)CCC(=O)N(Cc2cccc(C(=O)N(C)C)c2)C1` are -1% and 0.14.
For `Cc1nn(CC(=O)OC(C)C)c(C)c1CN1CCN(c2ccc(CN(C)C)cn2)CC1`, the “% Inhibition” value is recorded as -11% and the Z score is recorded as 1.06.
In the case of `N#Cc1nccnc1Nc1ccc(OCCO)cc1`, the “% Inhibition” value is on record as -13% and the Z score was found to be 2.53.
The corresponding values for `C#CCO[C@@H](C)C(=O)N1CCN(c2nnc(C)c(C)c2C(N)=O)CC1` are 3% and -0.43.
Turning to `CCCS(=O)(=O)NC1CCN(C(=O)C2=NN(c3ccc(C)cc3)C(=O)CN2)CC1`, the “% Inhibition” value worked out at 13% and the Z score is -1.98.
The corresponding values for `Cn1c(O)c(CCNc2cc([C@H]3CCOC3)ncn2)cnc1=O` are -11% and 1.93.
For `CO[C@@H](C(=O)N1CCCN2CCC[C@H]2C1)c1ccccc1`, the “% Inhibition” value was -5% and the Z score stood at 0.88.
In the same order, the values of `Cc1cc(NCc2ccsc2)nc(N)n1` are 16% and -2.24.
In the same order, the values of `CC1CN(CC(=O)Nc2ccccc2Br)C1c1ccccc1` (stereo not drawn) are -1% and 0.11.
For the molecule `C=CCn1cc(CNC[C@H](C)n2nc(C)cc2C)c(C)n1`, the “% Inhibition” value is on record as -1% and the Z score was 0.17.
Turning to `CC(C)(C)n1nc(CC(N)=O)nc1-c1ccccc1-c1nnn[nH]1`, the “% Inhibition” value amounted to 1% and the Z score is -0.29.
With `CCc1nc2cc(N[C@@H](C)C(=O)N3CCOCC3)ccc2o1`, the “% Inhibition” value is 2% and the Z score is reported as -0.23.
In the same order, the values of `c1nsnc1N1CCC(COc2cc3c(nn2)CCC3)CC1` are 3% and -0.59.
The corresponding values for `CCNC(=O)[C@@H]1CCCN1Cc1cc(=O)c2cccc(F)c2[nH]1` are -5% and 0.73.
In the same order, the values of `CCOCCCNC(N)=NCc1ccc(COC(C)C)cc1` are -1% and 0.21.
With `O=S(=O)(CC1CCOCC1)N1CCN(c2ccccc2Cl)CC1`, the “% Inhibition” value is reported as -1% and the Z score came out at 0.08.
On to `c1ccc(C2CCN(c3ccnc4ccsc34)CC2)cc1`, for which the “% Inhibition” value was -10% and the Z score is 1.6.
As for `CO[C@@H]1COC[C@H]1n1cc(CNC(=O)CCCC(F)(F)F)nn1`, the “% Inhibition” value is given as -4% and the Z score is given as 0.56.
`O=C([C@H]1CC(=O)N(c2ccc(F)cc2)C1)N1CCNCC1`: the “% Inhibition” value is listed as -7% and the Z score was 0.9.
With `Cc1ccc(Nc2nn(CN(C)CC(=O)N[C@H]3CCS(=O)(=O)C3)c(=S)s2)cc1Cl`, the “% Inhibition” value is reported as -18% and the Z score is reported as 3.13.
For `CCC(NC(=O)c1ccn(C)c1C)[C@H]1C[C@H](O)C1` (stereo partly drawn), the “% Inhibition” value is -1% and the Z score worked out at 0.09.
The corresponding values for `Cc1ncccc1OC[C@H]1CCCN1C(=O)c1cnn(C)c1C` are -11% and 1.45.
In the same order, the values of `O=C(Nc1cc(C(F)(F)F)c[nH]c1=O)C1CCOCC1` are -2% and 0.36.
In the same order, the values of `CC(C)(C(=O)N1C[C@@H]2CC[C@H]1CN(Cc1ccccn1)C2)c1ccccc1` are -1% and 0.15.
For `CCN(C(=O)CN1CCCS1(=O)=O)[C@@H](C)Cc1ccsc1`, the “% Inhibition” value is -16% and the Z score is reported as 2.67.
In the same order, the values of `Cc1cc(C)nc(NC2CCCCC2)n1` are -11% and 1.11.
The corresponding values for `Cc1ccc(C(=O)c2cnc3cc4c(cc3c2N2CCC(C(N)=O)CC2)OCO4)cc1C` are -12% and 1.58.
In the same order, the values of `CCCc1ncncc1C(=O)N1C[C@@H](C)[C@@](C)(O)C1` are -25% and 2.21.
As for `COc1ccc(CCc2nc3nccc(-c4ccc5c(c4)OCO5)n3n2)cc1OC`, the “% Inhibition” value is on record as -9% and the Z score stood at 1.19.
With `CCCn1ncc(C(=O)N2C[C@H]3CC[C@@H](C2)N(Cc2ccccn2)C3)c1C`, the “% Inhibition” value was -1% and the Z score worked out at 0.19.
The corresponding values for `COc1ccc(S(=O)(=O)N[C@H]2[C@H](O)[C@H](O)C[C@@H]2c2ccc(C(F)(F)F)cc2)cc1` are 11% and -1.32.

Usually % Inhibition stands for the relative decrease from the control value, in per cent.
